The values below come from the supplement of paper PMC10369915.

The chains are these.
B1: MYH2_Y389 (peptide)
chain: ADKAAYLQSLN
B2: MYH1_Y389_K386R (peptide)
chain: ADRAAYLQNLN
B3: MYBPC3_Y1135 (peptide)
chain: IIGNGYYFRVF
B4: MYH7_Y162_Y162C (peptide)
chain: ISDNACQYMLT
B5: MYH7_Y162_YF (peptide)
chain: ISDNAYQFMLT
B6: MYH7_Y1488 (peptide)
chain: KLKNAYEESLE
B7: MYH7_Y1460_K1459N (peptide)
chain: EWKQNYEESQS
B8: MYBPC3_Y1136_R1138H_YF (peptide)
chain: IGNGFYFHVFS
B9: MYBPC3_Y1135_R1138H_YF (peptide)
chain: IIGNGYFFHVF
B10: MYH6_Y717_R721W (peptide)
chain: PNRILYGDFWQ
B11: MUSK_Y577 (peptide)
chain: RNNIEYVRDIG
B12: MYBPC3_Y1135_YF (peptide)
chain: IIGNGYFFRVF
B13: MYC_Y16_N11S_YF (peptide)
chain: SFDLDYDSVQP
B14: MYH7_Y1375_A1379T (peptide)
chain: QWRTKYETDTI
B15: MYBPC3_Y1136_I1131T_YF (peptide)
chain: TGNGFYFRVFS
B16: MYBPC3_Y1119_V1115I (peptide)
chain: TILEHYRRTHC
B17: MYC_Y12 (peptide)
chain: FTNRNYDLDYD
B18: MYEF2_Y164 (peptide)
chain: ETMNKYDLSGR

This is one part of the list. No stated cut-off is given here; in the data, active = 3.2 or more and inactive = the rest. The signal is at background level for most entries.
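Further: displayed peptides selected on beads carrying the immobilized SH2 domain, with library peptides lacking any tyrosine serving as negative controls.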

The first assay addresses SHP2 C-SH2 domain E139D. Put plainly: enrichment score (SH2-bound / input frequency) (ratio); bacterial display of known human phosphotyrosine sites (pTyr-Var adds point mutants) read by sequencing; higher = stronger binding; tyrosines were phosphorylated by kinases first. The conditions noted are these: peptide library: pTyr-Var.
With B1, the enrichment score is inactive: 0.79.
With B2, the enrichment score was inactive: 0.679.
The same measure, in the same setting: with B3 the figure was inactive: 0.738; with B4, inactive: 0.766.
For the molecule B5, the enrichment score is inactive: 0.925.
In the case of B6, the enrichment score was inactive: 0.802.
As for B7, the enrichment score was inactive: 0.562.
With B8, the enrichment score was inactive: 0.899.
Still for that read-out and setting: under B9 stands inactive: 1.03; under B10, inactive: 1.05; under B11, inactive: 0.802.
Consider B12, for which the enrichment score was inactive: 0.633.
For B13, the enrichment score was inactive: 0.64.
For the molecule B14, the enrichment score is inactive: 0.644.
For B15, the enrichment score is inactive: 0.606.
On to B16, for which the enrichment score was inactive: 1.17.
As to B17, the enrichment score was inactive: 0.776.
Consider B18, for which the enrichment score is inactive: 0.715.

For another assay, the target named is SHP2 C-SH2 domain wild-type. The description is as above. The following applies: peptide library: pTyr-Var.
Turning to B1, the enrichment score was inactive: 0.739.
Consider B2, for which the enrichment score was inactive: 0.574.
Regarding B3, the enrichment score is inactive: 0.769.
For B4, the enrichment score is inactive: 0.944.
Turning to B5, the enrichment score is inactive: 0.802.
Still for that read-out and setting: under B6 stands inactive: 0.824; under B7, inactive: 0.59.
Take B8: the enrichment score was inactive: 0.928.
As for B9, the enrichment score was inactive: 1.21.
With B10, the enrichment score is inactive: 1.
For the molecule B11, the enrichment score was inactive: 0.817.
B12: the enrichment score is inactive: 0.924.
Same read-out and setting: under B13 stands inactive: 0.491; under B14, inactive: 0.884.
For the molecule B15, the enrichment score is inactive: 0.659.
With B16, the enrichment score is inactive: 1.28.
As for B17, the enrichment score is inactive: 0.621.
For the molecule B18, the enrichment score was inactive: 0.689.

The target in another assay is SHP2 N-SH2 domain L43F. Described as above. The conditions noted are these: peptide library: pTyr-Var.
As to B1, the enrichment score is inactive: 0.609.
Consider B2, for which the enrichment score is inactive: 0.652.
B3: the enrichment score was inactive: 0.802.
For B4, the enrichment score was inactive: 0.871.
In the case of B5, the enrichment score was inactive: 0.956.
In the case of B6, the enrichment score is inactive: 0.792.
In the case of B7, the enrichment score is inactive: 0.626.
Regarding B8, the enrichment score was inactive: 0.854.
In the case of B9, the enrichment score was inactive: 1.12.
As for B10, the enrichment score was inactive: 0.904.
As for B11, the enrichment score is inactive: 1.16.
Turning to B12, the enrichment score was inactive: 0.787.
B13: the enrichment score is inactive: 0.533.
Consider B14, for which the enrichment score was inactive: 0.859.
B15: the enrichment score is inactive: 0.603.
On the same count and under the same terms, with B16 the figure was inactive: 1.24; with B17, inactive: 0.62.
Consider B18, for which the enrichment score is inactive: 0.545.

The next assay addresses SHP2 N-SH2 domain T42A. The assay is described as above. The following applies: peptide library: pTyr-Var.
Regarding B1, the enrichment score is inactive: 0.573.
In the case of B2, the enrichment score is inactive: 0.693.
In the case of B3, the enrichment score is inactive: 0.749.
In the case of B4, the enrichment score was inactive: 0.903.
On the same count and under the same terms, under B5 stands inactive: 0.921; under B6, inactive: 0.834; under B7, inactive: 0.656.
As for B8, the enrichment score is inactive: 0.803.
Regarding B9, the enrichment score is inactive: 1.08.
B10: the enrichment score was inactive: 1.32.
For B11, the enrichment score was inactive: 0.608.
Take B12: the enrichment score was inactive: 0.895.
As to B13, the enrichment score is inactive: 0.589.
Turning to B14, the enrichment score is inactive: 0.803.
As to B15, the enrichment score is inactive: 0.519.
As to B16, the enrichment score was inactive: 0.959.
B17: the enrichment score was inactive: 0.514.
Same read-out and setting: under B18 stands inactive: 0.549.

Another assay has as its target SHP2 N-SH2 domain T52S. The assay is described as above. The conditions noted are these: peptide library: pTyr-Var.
B1: the enrichment score is inactive: 0.716.
B2: the enrichment score is inactive: 0.622.
For B3, the enrichment score was inactive: 0.709.
With B4, the enrichment score is inactive: 0.733.
For the molecule B5, the enrichment score is inactive: 0.953.
Regarding B6, the enrichment score was inactive: 0.665.
For the molecule B7, the enrichment score is inactive: 0.587.
Take B8: the enrichment score was inactive: 0.88.
On to B9, for which the enrichment score was inactive: 1.12.
Still for that read-out and setting: under B10 stands inactive: 0.934; under B11, inactive: 0.936.
Regarding B12, the enrichment score was inactive: 0.649.
Consider B13, for which the enrichment score is inactive: 0.516.
Consider B14, for which the enrichment score was inactive: 0.627.
For the molecule B15, the enrichment score is inactive: 0.534.
On to B16, for which the enrichment score is inactive: 1.08.
On to B17, for which the enrichment score was inactive: 0.509.
As for B18, the enrichment score was inactive: 0.733.

The target in another assay is SHP2 N-SH2 domain wild-type. The assay is described as above. The conditions noted are these: peptide library: pTyr-Var.
Take B1: the enrichment score is inactive: 0.646.
In the case of B2, the enrichment score is inactive: 0.827.
B3: the enrichment score is inactive: 1.09.
In the case of B4, the enrichment score is inactive: 0.908.
As for B5, the enrichment score was inactive: 0.824.
For B6, the enrichment score was inactive: 0.961.
Take B7: the enrichment score is inactive: 0.594.
Consider B8, for which the enrichment score is inactive: 0.995.
The same measure, in the same setting: under B9 stands inactive: 1.33; under B10, inactive: 1.13.
As for B11, the enrichment score was inactive: 1.11.
As for B12, the enrichment score is inactive: 1.02.
Take B13: the enrichment score was inactive: 0.589.
Turning to B14, the enrichment score was inactive: 0.597.
In the case of B15, the enrichment score is inactive: 0.989.
The same measure, in the same setting: with B16 the figure was inactive: 1.05.
With B17, the enrichment score was inactive: 0.714.
Take B18: the enrichment score was inactive: 0.82.
